{
  "source": "PubChem BioAssay AID1508649",
  "about": "(National Center for Advancing Translational Sciences (NCATS), 2021)",
  "note": "The campaign covered roughly 43,000 compounds. About 830 (1.9%) were called active. Inconclusive means that the source gave no clear call. Such entries were picked first, then a sample of the others. The calls were made as follows: active = clear falling dose curves in both reporters; inconclusive = both reporters move, but less clearly or upward; inactive = either reporter flat; the % is the NLuc reporter signal. No potency is given beside an inconclusive call; the fits are too rough. % is scaled to controls: 0 for no effect and ±100 for the full control effect; potency is read from the fitted curve at half-maximal effect; tags tell the direction and shape of the fitted curve.",
  "data": [
    {"assay": "Cell-based coincidence reporter assay to measure PMP22 gene transcription in S16 Pmp22-F2sN cells - Primary screen", "conditions": "S16 Pmp22-F2sN Schwann cells (luciferase reporters placed in the Pmp22 gene), FLuc/NLuc coincidence luminescence, 24 h; measured here: NLuc reporter readout, at 57.5 µM (top of the series); activity change, negative = inhibition: at the top concentration", "excerpt": "Assay Provider: Jim Inglese Ph.D. National Center for Advancing Translational Science, National Institutes of Health, Rockville, MD CMT is a heterogeneous group of neurological disorders that affect approximately 1 in 2,500 people. In particular, the most common form of CMT, CMT1A is genetically linked to the duplication of the PMP22 gene which leads to Schwann cell overexpression, thus manifesting itself as a typical case of dose-sensitive diseases. To identify small molecule compounds that can mediate the expression of PMP22 we developed a phenotypic assay screening strategy by utilizing genome editing techniques to construct Schwann cell lines containing novel reporter technology to monitor the transcriptional or translational regulation of PMP22. For high sensitivity we use a bioluminescent reporter system embedded in the 3' UTR of the PMP22 gene (S16(c9) Pmp22-F2sN) to identify compounds that inhibit gene expression. […] We can further discriminate the effect of all transcriptionally active molecules on PMP22 translation or stability with an assay that incorporates a short NLuc peptide (HiBiT) at the C-terminus of expressed PMP22 (S16(f8) PMP22-HiBiT) allowing alpha complementation and luminescence detection of membrane-associated PMP22 protein. These assays were screened against the NCATS Sytravon Library Collection. Miniaturization of these assays to 1536-well plate format for quantitative high throughput screening (qHTS) yielded rich data sets immediately from the qHTS assay (S16(c9) Pmp22-F2sN), when compared with data from a cell viability assay (Cell TiterGlo) to identify compounds that decreased the output signals through cellular toxicity to streamline the selection process of actives for subsequent characterization using the HiBiT assay (S16(f8) PMP22-HiBiT).\nCell-based coincidence reporter assay to measure PMP22 gene transcription in S16 Pmp22-F2sN cells PROTOCOL TABLE (format as described by Inglese J, Shamu CE and Guy RK. 2007) SEQUENCE No. (e.g., 1, 2, 3, etc.); […] (e.g., Cells, Incubation, Reagent, etc.); VALUE and DESCRIPTION. 1. Cells. Add 500-1,000 cells in 4 uL in growth media (DMEM High Glucose, No Phenol Red media + 10% heat-inactivated FBS + 1% Pen/Strep supplemented media) per well into Greiner 1536-well white/solid bottom high base, TC-treated plates. 2. Compounds. Library compounds and controls added at 23nL per well, transferred by Pin Tool. 3. Incubation. Incubate plates at 37C, 5% CO2, 95% RH for 24 h. 4. Reagent. Add 3.5uL Nano-Glo Dual-Luciferase Reporter Assay System reagent 1: Lysis and FLuc reagent per well of Greiner 1536-well plates. 5. Incubation. Incubate plates at room temperature for 10 min., protect from light. 6. Detector. FLuc luminescence measured using CCD-based camera (Viewlux). 7. Reagent. Add 3.5uL Nano-Glo Dual-Luciferase Reporter Assay System reagent 2: Stop&Glo reagent per well of Greiner 1536-well plates. 8. Incubation. Incubate plates at room temperature for 10 min., protect from light. 9. Detector. NLuc luminescence measured using CCD-based camera (Viewlux). NOTES (numbers refer to Sequence numbers above; values are from representative experiments) 6. Luminescence Read #1 (FLuc): Clear filter; Exposure = 10 sec, Gain = High, Speed = Slow, Binning = 2X 9. Luminescence Read #2 (NLuc): Clear filter; Exposure = 1 sec, Gain = High, Speed = Slow, Binning = 2X REFERENCES: 1. Inglese J, Shamu CE and Guy RK, Reporting data from high throughput screening of small molecule libraries, Nature Chemical Biology, 2007, 3(8): 438-441. doi.org/10.1038/nchembio0807-438 2. Yasgar A, Shinn P, Jadhav A, Auld DS, Michael S, Zheng W, Austin CP, Inglese J and Simeonov A, Compound Management for Quantitative High-Throughput Screening. J. Assoc. Lab. Auto., 2008, 13: 79-89. doi: 10.1016/j.jala.2007.12.004", "values": [
      {"molecule": "COC(=O)c1c(NC(=O)/C=C/c2ccc(OC)c(OC)c2)sc2c1CCC2", "Potency": "inconclusive [phenotype inactive, single point]"},
      {"molecule": "Cc1ccc(C)c(NC(=O)Cn2c(=O)n(Cc3ccc4c(c3)OCO4)c(=O)c3ccccc32)c1", "Potency": "inconclusive [phenotype inactive, single point]"},
      {"molecule": "CCCSc1nnc2n(-c3cccc(C)c3)c(=O)c3c4c(sc3n12)CCCC4", "Potency": "inconclusive [phenotype inactive, single point]"},
      {"molecule": "Cc1cccc(C(=O)OCc2cc(=O)n3nc(-c4cccs4)sc3n2)c1", "activity change, negative = inhibition": "inactive: -6.07%"},
      {"molecule": "CCS(=O)(=O)c1ncc(Cl)c(C(=O)N(Cc2ccccc2)c2ccc(OC)cc2)n1", "Potency": "active: 2.24 µM"},
      {"molecule": "CCOc1ccc2c(c1)c(=O)c(C(=O)c1ccc(C)cc1)cn2Cc1ccccc1OC", "Potency": "inconclusive [phenotype inactive, partial curve, poor fit]"},
      {"molecule": "CN(C)c1ccc(CNC(=O)Cn2ccc3cc(S(=O)(=O)N4CCCCCC4)ccc32)cc1", "Potency": "inconclusive [phenotype inactive, single point]"},
      {"molecule": "Cc1ccc(C(=O)CC2(O)C(=O)N(Cc3ccccc3)c3ccccc32)c(C)c1", "note": "(stereo unspecified)", "activity change, negative = inhibition": "inactive: -26.6%"},
      {"molecule": "O=C(NCCCc1ccccc1)c1ccc2c(c1)sc1nc(-c3ccc(F)cc3)cn12", "activity change, negative = inhibition": "inactive: -12.4%"},
      {"molecule": "Cc1cccc(C)c1NC(=O)c1cc2sccc2n1Cc1ccc(F)cc1", "Potency": "inconclusive [phenotype inactive, single point]"},
      {"molecule": "Cc1ccn2c(=O)c(NC(=O)c3cccc([N+](=O)[O-])c3C)c(C)nc2c1", "Potency": "inconclusive [phenotype inactive, partial curve, poor fit]"},
      {"molecule": "Cc1ccc(COC(=O)c2ccc(-c3nnn(Cc4ccc(C)cc4)n3)cc2)cc1", "activity change, negative = inhibition": "inactive: 21.1%"},
      {"molecule": "O=C(NCCc1ccc(Cl)cc1)c1ccc2c(c1)N(Cc1ccccc1)C(=O)CS2", "Potency": "inconclusive [phenotype inactive, single point]"},
      {"molecule": "CCn1cnc2cc(NCc3ccc(N(C)C)cc3)ccc21", "Potency": "inconclusive [phenotype inactive, single point]"},
      {"molecule": "COc1cccc(CNC(=O)C2CCCN(c3nnc(-n4c(C)ccc4C)s3)C2)c1", "note": "(stereo unspecified)", "Potency": "inconclusive [phenotype inactive, partial curve, poor fit]"},
      {"molecule": "COC(=O)c1ccccc1NC(=O)CSc1c2c(nc3ccc(Cl)cc13)CCCC2", "Potency": "active: 17.8 µM"},
      {"molecule": "COc1ccccc1CCNC(=O)C1CCN(c2nc3ccccc3nc2C(F)(F)F)CC1", "activity change, negative = inhibition": "inactive: -17.4%"},
      {"molecule": "COCCNC(=O)c1ccc(NC(=O)N2CCCCc3ccccc32)cc1", "activity change, negative = inhibition": "inactive: -11.3%"},
      {"molecule": "COc1cccc(CNC(=O)c2ccc3c(Cl)c4c(nc3c2)CCCC4)c1", "Potency": "inconclusive [phenotype inactive, single point]"},
      {"molecule": "Cc1ccc(S(=O)(=O)c2nc(-c3ccco3)oc2SCC(=O)c2ccc(Cl)cc2)cc1", "Potency": "inconclusive [phenotype inactive, single point]"},
      {"molecule": "CC(C)c1ccc(NC(=O)c2cc(S(=O)(=O)NC3CCCCC3)ccc2F)cc1", "Potency": "inconclusive [phenotype inactive, single point]"},
      {"molecule": "CCOc1ccc(N(C)S(=O)(=O)c2cc(-c3cnc(C)o3)ccc2OC)cc1", "Potency": "inconclusive [phenotype inactive, single point]"},
      {"molecule": "COc1cccc(CNC(=O)Nc2ccc3c(c2)N(C)C(=O)c2ccccc2S3)c1", "Potency": "active: 17.9 µM"},
      {"molecule": "COC(=O)CSc1nnc(-c2cccc(O)c2)o1", "activity change, negative = inhibition": "inactive: -6.33%"},
      {"molecule": "Cc1ccc2nc(Cl)c3cc(C(=O)N4CCCC(C)C4)sc3c2c1", "note": "(stereo unspecified)", "Potency": "inconclusive [phenotype inactive, single point]"},
      {"molecule": "Cc1oc(-c2ccccc2)nc1Cn1c(=O)cc(-c2ccccc2)c2c(C)nn(C)c21", "activity change, negative = inhibition": "inactive: 2.13%"},
      {"molecule": "CCOc1ccccc1Nc1nc(-c2cccc(Cl)c2)c2c(n1)-c1ccccc1OC2", "activity change, negative = inhibition": "inactive: -10.7%"},
      {"molecule": "COc1ccc(NC(=O)c2sc3nc4c(cc3c2N)CN(C(C)C)CC4)c(OC)c1", "Potency": "inconclusive [phenotype inactive, single point]"},
      {"molecule": "O=c1c2oc3ccccc3c2n(Cc2cccc(F)c2)c(=O)n1Cc1ccco1", "activity change, negative = inhibition": "inactive: 6.12%"},
      {"molecule": "COc1ccc(C(=O)N2CCC(c3nc4ccccc4o3)CC2)cc1", "activity change, negative = inhibition": "inactive: -2.94%"},
      {"molecule": "COc1ccc(NC(=O)c2ccc3c(=O)n4nc(Nc5cc(C)ccc5C)sc4nc3c2)cc1", "Potency": "inconclusive [phenotype inactive, partial curve]"},
      {"molecule": "CCc1ccccc1NC(=O)Cn1c(=O)c2cccn2c2ccc(F)cc21", "activity change, negative = inhibition": "inactive: -4.32%"},
      {"molecule": "CCOC(=O)C1CCN(S(=O)(=O)c2cc(-c3onc(C)c3C)ccc2OC)CC1", "Potency": "inconclusive [phenotype inactive, partial curve, poor fit]"},
      {"molecule": "O=S(=O)(NCC(c1ccco1)S(=O)(=O)c1cccs1)c1ccc(F)c(C(F)(F)F)c1", "note": "(stereo unspecified)", "Potency": "active: 7.27 µM"},
      {"molecule": "CCOc1ccc(NC(=O)CSc2nccn2-c2cccc(C)c2C)cc1", "Potency": "inconclusive [phenotype inactive, single point]"},
      {"molecule": "O=C(Nc1cccc(Cl)c1Cl)c1cc(S(=O)(=O)N2CCC3(CC2)OCCO3)ccc1F", "Potency": "inconclusive [phenotype inactive, single point]"},
      {"molecule": "CCOC(=O)c1ccc(NC(=O)c2ccc3c(c2)c(C)c(C)n3Cc2ccc(F)cc2)cc1", "activity change, negative = inhibition": "inactive: -14.4%"},
      {"molecule": "Cc1ccc(NS(=O)(=O)c2ccc3[nH]c4c(c3c2)CCCC4)c(C)c1", "Potency": "inconclusive [phenotype inactive, single point]"},
      {"molecule": "CCOc1ccccc1N1CC(c2nc3ccccc3n2CCOc2ccc(OC)cc2)CC1=O", "note": "(stereo unspecified)", "Potency": "inconclusive [phenotype inactive, single point]"},
      {"molecule": "COc1cccc(-c2ccc3c(N)c(C(=O)Nc4ccc(Cl)cc4F)sc3n2)c1", "Potency": "inconclusive [phenotype inactive, single point]"},
      {"molecule": "O=C(CSc1oc(-c2ccccc2)nc1S(=O)(=O)c1ccc(Br)cc1)NC1CCCCC1", "Potency": "inconclusive [phenotype inactive, single point]"}
    ]}
  ]
}
